# According to PubChem BioAssay AID686970 (National Center for Advancing Translational Sciences (NCATS), 2013):
# Hit rate of the full screen: of about 360,000 compounds, about 6,000 (1.7%) were called active. This list was built around the results that the source calls inconclusive (neither active nor inactive); the mix of calls is not that of the screen. Calls come from the whole dose curve; as a rule, active = well fitted cell-killing curve with a large enough effect; inconclusive = small, poorly fitted or top-dose-only effect, or effect the other way; inactive = flat fitted curve, though single readings scatter. Potencies of inconclusive entries are left out as doubtful fits.
# Assay: qHTS for induction of synthetic lethality in tumor cells producing 2HG: qHTS for the HT-1080-NT fibrosarcoma cell line;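 note: NT is the 2HG producing partner of a matched IDH1 knockdown line; nearly all actives have a fitted effect of over 55% in size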;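 for activity, negative = less viability: 0% = DMSO-treated cells and -100% = media-only wells without cells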
# Conditions: HT-1080-NT fibrosarcoma viability, CellTiter-Glo ATP luminescence, 48 h; activity, negative = less viability: at 46.1 µM (top of the series) unless noted
# Outline: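 A 48-hour cytotoxicity screen used HT-1080-NT cells plated 2 hours before compound delivery. ATP-based CellTiter-Glo luminescence measured viability, normalized to DMSO and no-cell controls.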
# Potency is the fitted concentration of half-maximal effect; tags give direction and shape of the fitted curve.
Structure (SMILES),"activity, negative = less viability",Potency
COc1cc(C(C)=O)ccc1OCC(=O)Nc1ccccc1N1CCCCC1,inconclusive: -36.2% [cytotoxic],
Cc1c(C(=O)OCc2ccccc2)[nH]c2c1C(=O)CC(c1ccco1)C2 (stereo not drawn),,"inconclusive [cytotoxic, full curve, poor fit]"
CC(C)n1cc(/C=N/NC(=O)COc2cccc3cccnc23)c2ccccc21,,"inconclusive [cytotoxic, single point]"
N#Cc1c(NCCN)nc(-c2ccccc2)c2c1CCCC2,,"inconclusive [cytotoxic, partial curve]"
COc1ccccc1NCC(=O)NC(=O)NC1CCCCC1,inactive: -16.2%,
CC1=CC(C)(C)Nc2ccc(OC(=O)C(C)N3C(=O)c4ccccc4C3=O)cc21 (stereo not drawn),,active: 20.6 µM
COc1ccc(NC(=O)C2Cc3c(-c4cccc(C(C)=O)c4)ccnc3O2)cn1 (stereo not drawn),,"inconclusive [cytotoxic, full curve]"
CCc1ccc(CNC(=O)C2Cc3cc(S(=O)(=O)N4CCCC4)ccc3N2C(C)=O)cc1 (stereo not drawn),inactive: -3.68%,
Cc1ccc(Cl)cc1-c1cc(C(=O)NCc2ccc(C(F)(F)F)cc2)[nH]n1,,"inconclusive [cytotoxic, single point]"
O=C(Nc1ccc(F)cc1)Nc1ccc(Cl)cn1,,"inconclusive [cytotoxic, single point]"
CCC(C)(C)C1CCc2[nH]nc(C(=O)N/N=C(\C)c3ccco3)c2C1 (stereo not drawn),,"inconclusive [cytotoxic, single point]"
COc1ccc(CN2C(=O)C(Cc3ccccc3)Nc3ncnc(N4CCN(c5ccccc5)CC4)c32)cc1 (stereo not drawn),,"inconclusive [cytotoxic, partial curve]"
Cc1ccc(-c2ccc(CN3C(C(C)C)C(=O)N(Cc4cn(CC5CCCCC5)nn4)CCS3(=O)=O)cc2)cc1 (stereo not drawn),,"inconclusive [cytotoxic, partial curve]"
COc1cccc(-c2c(-c3cc(OC)cc(OC)c3)n(C)c3ccc(-c4ccc5[nH]ccc5c4)cc23)c1,inactive: -10%,
CCCCCCNC(=O)O[C@H]1Cn2c(=O)n(CCCCCC)c(=O)n2[C@@H]2CN(S(=O)(=O)c3ccc(C)cc3)C[C@]12O,,"inconclusive [cytotoxic, single point]"
COc1ccc(CC(=O)Nc2ccc(-c3cn4ccc(C)cc4n3)cc2)cc1,,active: 14.6 µM
O=C(COc1ccccc1F)Nc1cc(S(=O)(=O)N2CCOCC2)ccc1N1CCOCC1,inactive: 10.2%,
CN(Cc1ccco1)S(=O)(=O)c1nnc(NC(=O)c2cccc(Cl)c2)s1,,"inconclusive [cytotoxic, single point]"
CCC(C)[C@H](N)C(=O)N[C@H]1CCC2C3CC=C4C[C@@H](O)CC[C@]4(C)C3CC[C@@]21C (stereo partly drawn),,"inconclusive [cytotoxic, single point]"
CCCNC(=S)Nc1ccc(Oc2ccccc2)cc1,,active: 15.8 µM
COc1cc(C(=O)N/N=C/C2CC=CCC2)cc(OC)c1OC (stereo not drawn),,"inconclusive [cytotoxic, partial curve]"
CN(C)c1ccc(C=Cc2ccnc3c(O)cccc23)cc1,inconclusive: -24% [cytotoxic],
CC(C(=O)Nc1ccc2[nH]c(=O)[nH]c2c1)N1CCN(Cc2ccc3c(c2)OCO3)CC1 (stereo not drawn),inactive: 9.77%,

Structure (SMILES),"activity, negative = less viability",Potency
CC1=C(C)CS(=O)N(S(=O)(=O)c2ccc(Cl)cc2)C1 (stereo not drawn),,"inconclusive [cytotoxic, single point]"
C[C@H](CO)N1C[C@H](C)[C@@H](CN(C)S(=O)(=O)c2cn(C)cn2)Oc2ccc(NC(=O)Cc3ccccc3)cc2C1=O,inactive: 11.2%,
COC(=O)C[C@H]1c2cc(F)ccc2S(=O)(=O)N1Cc1ccccc1,inconclusive: 23.2%,
Cc1ccc(/C=N/n2cnc3sc4c(c3c2=O)CCCC4)o1,,"inconclusive [cytotoxic, single point]"
O=C(CC1SC(=Nc2ccccc2)N(Cc2ccccn2)C1=O)Nc1cccc(Cl)c1 (stereo not drawn),,"inconclusive [cytotoxic, single point]"
O=C(C1CCCN(c2ncnc3c2nc2n3CCCCC2)C1)N1CCN(c2ccc(Cl)cc2)CC1 (stereo not drawn),,"inconclusive [cytotoxic, single point]"
COc1cc(C2c3cc4c(cc3C(O)C3COCC23)OCO4)cc(OC)c1OC (stereo not drawn),,active: 25.9 µM
O=C(NNc1ccc(O)cc1)c1ccc(Br)cc1,,"inconclusive [cytotoxic, full curve]"
Cc1cc(N2CCN(C)CC2)nc2ccc(NC(=O)c3ccc(Br)o3)cc12,,"inconclusive [cytotoxic, single point]"
CC1CN(S(=O)(=O)c2cc(C(=O)NCCC3=CCCCC3)ccc2Cl)CC(C)O1 (stereo not drawn),inconclusive: -14% [cytotoxic],
O=C1c2ccccc2C(=O)c2c1oc(C(F)(F)F)c2C(=O)c1ccccc1,,"inconclusive [cytotoxic, single point]"
CC(C)(C)c1ccc(C(=O)N2CCC2(C)C(=O)NCc2cccc3ccccc23)cc1 (stereo not drawn),,"inconclusive [cytotoxic, single point]"
COc1ccc(C(CCNCc2ccc(N(C)C)cc2)c2ccccc2)cc1 (stereo not drawn),,active: 18.4 µM
O=C(C1CCN(S(=O)(=O)c2cccc3cccnc23)CC1)N1CCN(c2ccc(Cl)cc2)CC1,inactive: 2.97%,
COc1ccc(-c2csc3ncnc(N4CCN(S(=O)(=O)c5ccc(C)c(C)c5)CC4)c23)cc1,inactive: -19.1%,
COc1ccccc1NS(=O)(=O)c1cccc(NC(=O)Nc2ccc(Cl)cc2)c1,,"inconclusive [cytotoxic, single point]"
CCOc1ccc(CN(C)C(=O)c2ccc(NC(=O)CC3SC(N4CCCC4)=NC3=O)cc2)cc1 (stereo not drawn),inactive: -2.87%,
COc1cccc(-c2ccc(NC(=O)C3CCCN(Cc4cnn(C)c4C)C3)cc2)c1 (stereo not drawn),,"inconclusive [cytotoxic, single point]"
O=C(N/N=C/c1c(O)ccc2ccccc12)c1ccc(Br)o1,,"inconclusive [cytotoxic, partial curve]"
CCC(NC(=O)CNC(=O)c1ccc2c(c1)OCO2)c1ccc(Br)cc1 (stereo not drawn),inactive: 3.81%,
CC1(C(=O)Nc2ccc3ccccc3c2)CCC(=O)N1C1CCN(Cc2ccccc2)CC1 (stereo not drawn),,"inconclusive [cytotoxic, single point]"
COc1ccccc1N1CCN(C(=O)COc2ccc(Cl)cc2Br)CC1,,"inconclusive [cytotoxic, partial curve]"
CCCS(=O)(=O)NC(=O)C1(C)CCCN(C(=O)c2ccccc2C(F)(F)F)C1 (stereo not drawn),,"inconclusive [rising, single point]"

Structure (SMILES),"activity, negative = less viability",Potency
O=C(Nc1ccc(Cl)cc1)Nc1ccc(N2CCCC2)c(S(=O)(=O)Nc2ccccc2Cl)c1,,"inconclusive [cytotoxic, full curve]"
Cc1ccc(NNC(=O)c2ccno2)c(C)c1,,active: 5.8 µM
CNc1nc(-c2ccc3c(c2)CCN3C(=O)c2cccc(F)c2)cs1,,"inconclusive [cytotoxic, single point]"
COc1ccc(N(C(=O)c2ccncc2)S(=O)(=O)c2cccc([N+](=O)[O-])c2)cc1,inactive: -11.8%,
Cc1ccc(-n2[nH]c(C)c(/C=N/N3C(=O)c4cccc5cccc(c45)C3=O)c2=O)cc1,,"inconclusive [cytotoxic, partial curve]"
COc1ccc(NC(=O)N2Cc3ccccc3CC2C(=O)NC(C)(C)C)cc1 (stereo not drawn),inconclusive: 30.2%,
CC(=O)Nc1ccc(NC(=O)CS(=O)(=O)c2cn(CC(=O)N3CCC(C)CC3)c3ccccc23)cc1,inactive: -2.33%,
COc1ccc(CCNCC2C(Oc3ccc(Cl)cc3)C(=O)N2c2ccccc2C)cc1OC (stereo not drawn),,"inconclusive [cytotoxic, single point]"
Cc1ccc2nc(-c3ccc(NC(=S)NC(=O)C(C)C)cc3)sc2c1,,active: 2.82 µM
CC[C@H](C)[C@H](NC(N)=O)C(=O)NCCc1ccc(Cl)cc1Cl,inactive: 2.64%,
COC(=O)c1cc(NC(=O)c2cccc([N+](=O)[O-])c2C)ccc1Cl,,"inconclusive [cytotoxic, single point]"
CCOc1cc(/C=N/NC(=O)Cn2nc([N+](=O)[O-])cc2C)cc(Br)c1OCc1ccccc1C,,"inconclusive [cytotoxic, single point]"
O=C1CCC(CCC(=O)N2CCCC(C(=O)c3ccc4c5c(cccc35)CC4)C2)=NN1 (stereo not drawn),inactive: -5.09%,
Cc1cc(Br)ccc1SCC(=O)Nc1cccnc1,,"inconclusive [cytotoxic, single point]"
Cc1nc(Sc2ccccc2)c(C#N)c(C)c1[N+](=O)[O-],inactive: -27.6%,
CCCc1ccc2oc(C(=O)NCCN3CCCC(O)C3)c(C)c2c1 (stereo not drawn),,"inconclusive [cytotoxic, single point]"
Cn1c(COc2ccccc2O)[n+](C)c2ccccc21,inactive: -0.0915%,
CC(CNC(=O)c1cc(COc2ccc3ncccc3c2)on1)c1ccccc1 (stereo not drawn),,"inconclusive [cytotoxic, single point]"
CN(CC(=O)Nc1ccc(Cl)cc1)CC(=O)Nc1cc(Cl)ccc1C#N,,"inconclusive [cytotoxic, single point]"
CN(O)/C=c1/ccc2c(n1)C(=O)C=CC=2,,"inconclusive [cytotoxic, single point]"
Cc1cc(-c2csc(N)n2)c(C)n1CCc1ccccc1,inactive: 0.726%,
CC(=O)N1CCCc2cc(S(=O)(=O)N3CCCC(C(=O)N4CCN(c5cc(C)ccc5C)CC4)C3)ccc21 (stereo not drawn),,"inconclusive [cytotoxic, full curve]"
